In all, about 110,000 compounds were measured (“z-score”: median about -0.1, highest 2% from about 2 on). The list shows a part of the results.
These compounds were tested against Metabotropic glutamate receptor 8 (Rattus norvegicus) (UniProt P70579) (assay: mGluR8 Gi/Go-coupled signaling modulation – cell-based, rat, thallium flux, HTS, primary screen (AID 488969)). Details: HEK293 rat mGluR8, GIRK (G protein-gated inwardly rectifying potassium channel) thallium flux, FluoZin2; at 10 µM; stronger effect = higher value.
Chain of UniProt P70579 (P70579 whole entry, looked up): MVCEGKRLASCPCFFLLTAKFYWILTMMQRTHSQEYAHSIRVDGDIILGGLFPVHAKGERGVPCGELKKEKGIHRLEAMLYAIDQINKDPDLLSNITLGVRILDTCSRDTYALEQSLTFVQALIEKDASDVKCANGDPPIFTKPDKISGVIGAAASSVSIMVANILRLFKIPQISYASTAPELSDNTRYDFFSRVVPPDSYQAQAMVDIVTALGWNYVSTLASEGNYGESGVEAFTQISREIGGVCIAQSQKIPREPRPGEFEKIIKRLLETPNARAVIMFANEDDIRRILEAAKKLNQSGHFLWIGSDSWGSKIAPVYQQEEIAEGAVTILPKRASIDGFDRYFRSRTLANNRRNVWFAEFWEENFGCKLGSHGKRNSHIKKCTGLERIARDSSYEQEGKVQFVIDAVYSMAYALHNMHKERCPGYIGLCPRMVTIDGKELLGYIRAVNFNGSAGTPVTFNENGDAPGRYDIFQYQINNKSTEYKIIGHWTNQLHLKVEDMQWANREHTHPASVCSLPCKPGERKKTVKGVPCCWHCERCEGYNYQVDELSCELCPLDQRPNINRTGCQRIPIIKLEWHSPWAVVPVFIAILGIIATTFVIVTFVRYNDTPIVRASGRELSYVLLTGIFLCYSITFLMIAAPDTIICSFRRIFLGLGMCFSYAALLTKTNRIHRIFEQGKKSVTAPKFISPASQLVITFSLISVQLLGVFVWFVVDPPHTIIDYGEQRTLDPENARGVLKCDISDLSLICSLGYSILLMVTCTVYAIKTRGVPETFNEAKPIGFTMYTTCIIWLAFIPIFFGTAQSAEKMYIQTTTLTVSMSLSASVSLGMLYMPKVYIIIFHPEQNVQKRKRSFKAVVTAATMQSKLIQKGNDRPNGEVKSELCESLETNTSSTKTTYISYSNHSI

| SMILES | z-score |
| --- | --- |
| CCN(CC)CCN=C(C)c1c(O)n(-c2ccccc2OC)c(=O)[nH]c1=O | -0.111 |
| COc1cccc(NC(=O)CN2CC(c3ccccc3)CC2=O)c1 (centres undefined) | 0.0992 |
| CCCCC/C(=N\O)c1c[nH]c2ccccc12 | -0.171 |
| CC(C)NS(=O)(=O)c1ccc(OCC(=O)N2CCN(Cc3ccccc3)CC2)cc1 | -0.0269 |
| CCOC(=O)N(C)c1ccc(C(O)(C(=O)OC)C(F)(F)F)cc1 (centres undefined) | 0.24 |
| CCOC(=O)C1SC2(C(F)F)CC1(O)c1c(c(OC)c3occc3c1OC)O2 (centres undefined) | -2.67 |
| CN1C(=O)C(Cc2c[nH]c3ccccc23)C(=O)N(C)C1=O | -1.06 |
| CCOC(=O)c1c(/N=C/c2c(O)n(-c3ccc(F)cc3)c(=S)[nH]c2=O)sc2c1CCCC2 | -0.1 |
| O=C1NC(=O)N(CCNc2ncc(C(F)(F)F)cc2Cl)C(=O)C1/C=N/OCc1c(F)cccc1Cl (centres undefined) | 0.418 |
| CC(C(N)=O)N1CC(c2ccccc2)CC1=O (centres undefined) | -0.494 |
| C=CCN1C(=O)NC(=O)/C(=C/c2cccn2C)C1=O | -0.314 |
| CC(C)(C)C(=O)OCC12CCC(O1)C1(C)C(=O)OCC21 (centres undefined) | -0.269 |
| Cc1c(N=Nc2c(O)n(Cc3ccccc3)c(=O)[nH]c2=O)c(=O)n(-c2ccccc2)n1C | -0.116 |
| COc1ccc(NP(=O)(Nc2ccc(OC)cc2)Oc2ccccc2)cc1 | -0.382 |
| Cc1ccc(C(=O)C2(C)N(O)C(C)C(c3cccs3)=[N+]2[O-])cc1 (centres undefined) | 0.0284 |
| COc1cccc(-n2c(C)nc3ccccc3c2=O)c1 | -0.233 |
| Cc1cccc(N2C(=O)CC(=O)NC2=O)c1 | -0.345 |
| CCOC(=O)C1C2NC(=O)N(Cc3ccccc3)C1(C)Oc1c(OC)cccc12 (centres undefined) | 0.0221 |
| Cc1ccc(-c2nc3ccc(Cl)cc3n2OC(=O)N(C)C)cc1 | -0.974 |
| CC12CCC3C(CCC4C/C(=N/O)CCC43C)C1CCC2O (centres undefined) | 0.644 |
| C=CCn1c(O)c(C(C)=NCc2ccco2)c(=O)[nH]c1=O | -0.278 |
| O=C(CN1CCCCC1)c1cccc(Br)c1 | -0.0516 |

| SMILES | z-score |
| --- | --- |
| COc1ccc(C(=O)CN2CCOCC2)cc1F | -0.25 |
| O=C(c1cc(-c2cccnc2)nc2ccc(Cl)cc12)N1CCC2(CC1)OCCO2 | -0.431 |
| Fc1ccc(C2=CCN(C(c3cccs3)c3nnnn3CCc3ccccc3)CC2)cc1 (centres undefined) | -0.0814 |
| Cn1c2ccccc2c2c(C(=O)N3CCC4(CC3)OCCO4)cn(C3CCCC3)c(=O)c21 | -0.349 |
| O=c1[nH]c(=O)n(Cc2ccco2)c(O)c1C=NCc1cccs1 | -0.754 |
| CC(=Nc1c(C)n(C)n(-c2ccccc2)c1=O)c1c(O)n(Cc2ccccc2)c(=O)[nH]c1=O | -0.729 |
| COc1cccc(C2C([N+](=O)[O-])=C(N)Oc3c2c(=O)oc2ccccc32)c1 (centres undefined) | -0.342 |
| O=C1NC(=O)C2(C(=O)N1)C(c1ccc(F)cc1)NC(=S)NC2c1ccc(F)cc1 (centres undefined) | -0.889 |
| CCN(N=Nc1nonc1OC)c1nonc1OC | 0.691 |
| CCN(CC)CCNCC(=O)Nc1ccc(Cl)cc1C(=O)c1ccccc1 | -0.352 |
| CC(C)(C)c1ccc(CN2C(=O)CN=C(c3ccccc3)c3ccccc32)cc1 | 0.366 |
| N#Cc1cc2c(nc1SCC(=O)Nc1cc(Cl)ccc1Cl)C1CCN2CC1 | -1.88 |
| CN(C)CCN=Cc1c(O)n(C2CCCCCC2)c(=O)[nH]c1=O | 0.309 |
| Fc1ccc(C(OCCN2CCCC2)c2ccc(Br)cc2)cc1 (centres undefined) | 0.477 |
| O=[N+]([O-])NC1=NCN(Cc2ccco2)CN1Cc1ccco1 | -0.0646 |
| CC/C(=N\N1CCCCCC1)c1c(O)n(-c2ccccc2C)c(=O)[nH]c1=O | -0.69 |
| NC(=O)c1ccc(N=Nc2c(O)[nH]c(=O)[nH]c2=O)cc1 | -0.564 |
| Fc1ccccc1CCNCc1cccc(Cl)c1Cl | -0.132 |
| CCc1ccc(N2C(=O)NC(=O)C(CCc3ccncc3)(CCc3ccncc3)C2=O)cc1 | -0.212 |
| COP(=O)(OC)C(Nc1ccccn1)c1ccccc1 (centres undefined) | -0.308 |
| Cc1oc(-c2cccs2)nc1CSCC(=O)N1CCC2(CC1)OCCO2 | 0.655 |
| CCOP(=O)(OCC)C(NC(=O)c1ccccc1Cl)=C(Cl)Cl | -0.202 |

| SMILES | z-score |
| --- | --- |
| CC(=O)C1=C(C)OC(N)=C(C(=O)OC(C)C)C12C(=O)Nc1ccccc12 (centres undefined) | -0.361 |
| CC(C)COP(=O)(OCC(C)C)C(O)c1cccnc1 (centres undefined) | 0.0509 |
| COc1ccc(N2CCN(CCCN)CC2)cc1 | 0.403 |
| CCOc1ccc(N2C(=O)NC(=O)/C(=C\c3ccc(N4CCCCC4)o3)C2=O)cc1 | -0.492 |
| OC(c1ccc(F)cc1)(c1ccc(F)cc1)[C@@H]1CCCN1 | 0.177 |
| C=CCn1c(O)c(C(C)=Nc2ccc(N(C)C)cc2)c(=O)[nH]c1=O | -1.2 |
| C[N+]12CN3CN(CN(C3)C1)C2 | -1.16 |
| O=C(CSC1c2ccccc2-c2ccccc21)N/N=C/c1ccccc1 | 0.0284 |
| O=C(O)c1c[nH]c2ccc(S(=O)(=O)N(CCCl)CCCl)cc12 | 0.564 |
| CC(=NCCN1CCCCC1)c1c(O)n(Cc2ccccc2)c(=O)[nH]c1=O | -0.14 |
| C=Cn1c(P(=S)(N2CCOCC2)N2CCOCC2)cc2c1CCCC2 | -0.597 |
| Clc1cccc(N2CCNCC2)c1Cl | 0.654 |
| CCCc1nc2ccc(Br)cc2c(=O)n1-c1ccc([N+](=O)[O-])c(C(F)(F)F)c1 | -0.653 |
| O=C(N/N=C/c1c(O)n(CCC2=CCCCC2)c(=S)[nH]c1=O)c1ccccc1 | -0.132 |
| CCN(CCNc1ccc([N+](=O)[O-])c2cccnc12)S(=O)(=O)c1ccccc1 | -0.00677 |
| Cc1ccc(N2C(=O)NC(=O)C(CCc3ccccn3)(Cc3cccc(Cl)c3Cl)C2=O)cc1 (centres undefined) | -0.463 |
| CCCCOP(=O)(OCCCC)/C(C#N)=C(/C)O | 0.459 |
| Cc1nc(Cl)sc1C(=O)Nc1ccc2ccccc2c1 | 0.257 |
| COc1ccc(-n2c(SC)nc3ccccc3c2=O)cc1 | -0.741 |
| CCCC1(CCC)C(=O)NC(=Nc2ccccc2)NC1=O | 0.112 |
| O=C(COC(=O)Cc1ccccc1)Nc1cc(S(=O)(=O)N2CCOCC2)ccc1N1CCCC1 | -0.156 |
| Oc1ccc(/C=N/NP(=S)(c2ccccc2)c2ccccc2)cc1O | 1.01 |

| SMILES | z-score |
| --- | --- |
| COc1ccccc1CCNC1CCC(C(C)(C)C)CC1 (centres undefined) | -0.494 |
| COc1cc(CN2CC3CC(C2)c2cccc(=O)n2C3)cc(OC)c1OC (centres undefined) | -1.25 |
| CN1CCN(CCC(C#N)(c2ccccc2)c2ccccc2)CC1 | 0.18 |
| CCOP(=S)(NN(Cc1ccccc1)C(=O)c1ccccc1)OCC | -0.0699 |
| O=C(NCCCN1CCOCC1)C(Cl)(Cl)Cl | -0.223 |
| N=C1c2ccccc2CN1NC(=O)c1ccc(F)cc1 | -0.146 |
| O=c1c2ccccc2nc(N2CCCC2)n1-c1ccc(Cl)cc1 | -0.906 |
| O=C(CN1CCOCC1)c1ccc2cc[nH]c2c1 | 0.312 |
| CCn1c(=N)n(Cc2ccccc2F)c2ccccc21 | 0.599 |
| N=C1c2ccccc2CN1NC(=O)c1ccc(Cl)cc1 | -0.179 |
| O=C1NC(=O)N(c2ccccc2)C(=O)/C1=C\c1ccc2c3c(cccc13)CC2 | 0.108 |
| O=C(Nc1ccc(F)cc1)N1CC2CC(C1)c1cccc(=O)n1C2 (centres undefined) | -0.635 |
| COc1ccc(-n2c(Cc3cccc([N+](=O)[O-])c3)nc3ccccc3c2=O)cc1 | -0.326 |
| O=C(COc1ccccc1)N1CCN(CC(O)COc2ccccc2)CC1 (centres undefined) | -0.428 |
| O=C1C2CCN(CC2)[C@@H]1Cc1ccc2ccccc2c1O | 0.657 |
| O=C(OCC(=O)c1ccc([N+](=O)[O-])cc1)/C(=C\c1ccc(Cl)cc1)NC(=O)c1ccccc1 | -0.361 |
| CCOc1cc2[nH]c(=S)n(CCCC(=O)N3CCC4(CC3)OCCO4)c(=O)c2cc1OCC | -0.747 |
| O=C(Cc1ccccc1)N1CCN(Cc2cccnc2)CC1 | 0.0634 |
| O=S(=O)(c1ccc(Cl)cc1)N1CN2CCN(C2)C1 | -0.171 |
| C=CCN(CC=C)Cc1c[nH]c2ccccc12 | 1.43 |
| C(#CCN1CCOCC1)COC/C=C/c1ccccc1 | 0.236 |
| COc1ccc(CCNC(=O)COC(=O)Cc2ccccc2)cc1 | -0.0964 |

| SMILES | z-score |
| --- | --- |
| Cn1c(O)c(C=NCCN2CCN(C(=O)c3ccccc3)CC2)c(=O)n(C)c1=O | 0.641 |
| CN(C)CC1CSCCC1(O)c1ccccc1Cl (centres undefined) | 0.0287 |
| N#CCCn1cc(C(=O)Nc2ccc([N+](=O)[O-])cc2)c(-c2ccc3c(c2)OCCO3)n1 | -0.442 |
| Cc1cc(N2C(=O)C3CCCN3C2c2cccc(Cl)c2)no1 (centres undefined) | -0.0336 |
| CC1CCCN(C(=O)c2ccc(N3CC4CC(C3)c3cccc(=O)n3C4)c([N+](=O)[O-])c2)C1 (centres undefined) | -0.848 |
| O=C1CN=C(c2ccccc2)c2ccccc2N1Cc1ccc(C(F)(F)F)cc1 | 0.646 |
| c1ccc(C2CC3CC(c4ccco4)N2O3)cc1 (centres undefined) | -0.27 |
| O=C(CN1C2CCC1CC(O)(c1cccnc1)C2)Nc1ccc2c(c1)OCO2 (centres undefined) | -0.287 |
| Cc1cc(C=C2C(=O)N(C)C(=S)N(C)C2=O)c(C)n1C1CCCCC1 | -0.45 |
| O=C(NC1(C(F)(F)F)Oc2ccc(Cl)cc2O1)N1CCC2(CC1)OCCO2 (centres undefined) | 0.113 |
| CC[N+](C)(CC)CCCOC(=O)C(O)(c1ccccc1)C1CCCCC1 (centres undefined) | -0.291 |
| COc1ccccc1-n1c(O)c(C=NCc2ccc3c(c2)OCO3)c(=O)[nH]c1=O | -0.171 |
| O=c1[nH]c(=S)n(CCC2=CCCCC2)c(O)c1C=NC1CCN(Cc2ccccc2)CC1 | -0.0226 |
| O=C(c1cc(=O)[nH]c2ccc(Br)cc12)N1CCC2(CC1)OCCO2 | -0.021 |
| CCC(=NCCO)c1c(O)n(-c2ccccc2)c(=O)[nH]c1=O | -0.323 |
| CN1C2CCC1CC(OC(=O)c1ccc(Cl)cc1)C2 (centres undefined) | 0.354 |
| COC(=O)C(c1ccccc1)N1CCCCCC1 (centres undefined) | -0.607 |
| CC(=O)c1ccccc1NC(=O)C1C2CCC(O2)C1C(=O)O (centres undefined) | 0.0608 |
| CCCCCn1c(=O)c(C(=O)Nc2c(C)n(C)n(-c3ccccc3)c2=O)c(O)c2ccccc21 | -0.252 |
| O=C(Cn1cc(C(=O)c2ccccc2)c2ccccc21)NCc1ccco1 | -0.643 |
| CCOC(=O)c1sc(/N=C/c2c(O)n(-c3cccc(C)c3)c(=O)[nH]c2=O)c(C#N)c1C | -0.627 |
